From publication PMC6212790
The other results are listed elsewhere or left out. At the low end of the ranking the order means little.

Each sequence was assayed against T1, GST-Rok (full length) (UniProt O34857) (assay: protein binding microarray). Conditions: Rok is a gene silencer of Bacillus subtilis; high values mean tight binding; most listed sequences are background and not binding sites; double strand, one strand shown.
T1 sequence: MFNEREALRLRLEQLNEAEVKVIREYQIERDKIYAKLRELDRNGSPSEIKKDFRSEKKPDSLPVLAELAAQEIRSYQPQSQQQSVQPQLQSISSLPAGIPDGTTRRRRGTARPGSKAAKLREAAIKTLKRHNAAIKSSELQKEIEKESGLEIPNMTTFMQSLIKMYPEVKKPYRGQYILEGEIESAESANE
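Note: rank score from −0.5 (least bound) to 0.5 (best bound).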

Sequence	binding signal
GTCTAATA	0.153 E-score
CCAACGTC	-0.115 E-score
CAACACTC	-0.0858 E-score
ATTTGTTA	0.228 E-score
AACGTAGG	-0.0335 E-score
AGTATAAA	0.278 E-score
ATGTCCTC	-0.197 E-score
CACTCGCG	-0.218 E-score
CTCAAGAC	-0.118 E-score
AATGGTAT	0.309 E-score
GCAGGGCA	-0.249 E-score
CCTCAGAC	-0.248 E-score
AACAGCTT	0.12 E-score
TAGTCGAA	0.195 E-score
TCCCACCA	-0.251 E-score
CGGAGGGC	-0.363 E-score
TGAGAACA	0.000946 E-score
ATATATAT	0.471 E-score
AATGGCCC	0.0524 E-score
ACGGGGCT	-0.226 E-score
ACATCCGT	0.00576 E-score
CACTATAC	0.0744 E-score
CCACGCCG	-0.307 E-score
CGGGGCCA	-0.152 E-score

Sequence	binding signal
AGGTGAAT	-0.0282 E-score
ATGGCTTG	-0.172 E-score
GGGTGTGA	-0.3 E-score
AATAGTCT	0.0809 E-score
ACAAGTCA	0.0527 E-score
GGGTTAAA	0.118 E-score
ACGCTCAC	-0.0916 E-score
GGACGGGA	-0.331 E-score
CGTCAAGC	-0.133 E-score
CATGCACG	-0.0508 E-score
AAATCGTA	0.166 E-score
TTTCCAAA	0.161 E-score
ATGTACGA	0.296 E-score
CCTTGCAC	-0.137 E-score
CCACCTCA	-0.105 E-score
CGAATTTA	0.2 E-score
ACTAGGTA	0.289 E-score
TATACATA	0.37 E-score
GACCAGGA	-0.349 E-score
TACTTGGA	0.0443 E-score
ACCGACCT	-0.0903 E-score
AGGTGATC	-0.115 E-score
ACACCGGA	-0.0014 E-score
ACAAAGGG	-0.00131 E-score

Sequence	binding signal
AGCGCGAT	0.127 E-score
AAGATGCC	-0.0604 E-score
AAAAGACC	-0.151 E-score
CGAGTGCA	-0.154 E-score
CAACATGC	-0.0603 E-score
TCTCATCA	0.0785 E-score
GTACATTA	0.262 E-score
ATTCATTA	0.157 E-score
ACGATAGG	0.0845 E-score
ACGCTATG	0.0647 E-score
ATGGAACA	-0.00856 E-score
ACGCACCA	-0.218 E-score
ACTAATAA	0.293 E-score
CGTTCATA	0.091 E-score
CATCTTTC	0.0945 E-score
CCGGCTCA	-0.335 E-score
GCTGAAGA	-0.128 E-score
AAATTCCC	0.0369 E-score
ATTCAGGC	-0.0859 E-score
CATTGGGA	-0.0383 E-score
GTCTGATA	0.178 E-score
AGATATGG	0.0717 E-score
GCCTTCAC	0.0205 E-score
AGACGTCC	-0.0839 E-score

Sequence	binding signal
CGACGTTC	-0.11 E-score
GTTGAAGA	-0.112 E-score
ACCTCTCG	-0.166 E-score
AACTCAGT	-0.0114 E-score
AATCTAAG	0.156 E-score
CAAATGAA	0.175 E-score
AGACATAT	0.0317 E-score
TCGTGTAA	0.0386 E-score
TAATCCGA	0.113 E-score
CAGCTACA	0.0906 E-score
TGTAAGAA	0.185 E-score
CCGGGCGC	-0.233 E-score
AGGTCCAA	-0.255 E-score
AATGCCAC	-0.0451 E-score
TACAATGA	0.113 E-score
GCGATCGC	-0.215 E-score
AGAGTGGG	-0.17 E-score
AGTTCACC	-0.00687 E-score
TCTGTCAA	-0.21 E-score
GGACGGCA	-0.34 E-score
ACTTGCAT	0.0304 E-score
CTGCTCAA	-0.11 E-score
